Measurements taken from PubChem BioAssay AID2451 (National Center for Advancing Translational Sciences (NCATS), 2010).
Values joined by “and” are separate entries in the source; they are usually repeats but may differ in a detail not shown here. Equal entries are not always repeated. Hit rate of the full screen: of about 290,000 compounds, about 2,100 (0.72%) were called active. The shares of active, inactive and inconclusive entries below differ from those in the screen. The call rests on the fitted dose curve; in most records, active means well fitted inhibition curve with a large enough effect; inconclusive means small, poorly fitted or top-dose-only effect, or effect the other way; inactive means flat fitted curve, though single readings scatter. Where the call is inconclusive, the potency comes from a doubtful curve fit.

Molecular target: Fructose-bisphosphate aldolase (Giardia intestinalis (strain ATCC 50803 / WB clone C6)) (UniProt A8B2U2)
Assay: qHTS Assay for Inhibitors of Fructose-1,6-bisphosphate Aldolase from Giardia Lamblia; further: nearly all actives have a fitted effect of over 55% in size
Conditions: purified Giardia FBPA; activity, negative = inhibition: at 59.6 µM (top of the series) unless noted
How it was run: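 Giardia FBPA (40 nM reagent) was preincubated 10 min at RT with compound (up to 57.5 uM final), then substrate plus GAPDH/TPI/NAD/arsenate coupling system with diaphorase/resazurin was added; resorufin fluorescence (525/598 nm) was read after 20 min.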
On the % scale 0 is the no-effect control and ±100 the full control effect; potency means the concentration at half of the fitted maximal effect; tags describe the fitted curve by direction and shape.

Sequence of UniProt A8B2U2 (A8B2U2 whole entry, looked up): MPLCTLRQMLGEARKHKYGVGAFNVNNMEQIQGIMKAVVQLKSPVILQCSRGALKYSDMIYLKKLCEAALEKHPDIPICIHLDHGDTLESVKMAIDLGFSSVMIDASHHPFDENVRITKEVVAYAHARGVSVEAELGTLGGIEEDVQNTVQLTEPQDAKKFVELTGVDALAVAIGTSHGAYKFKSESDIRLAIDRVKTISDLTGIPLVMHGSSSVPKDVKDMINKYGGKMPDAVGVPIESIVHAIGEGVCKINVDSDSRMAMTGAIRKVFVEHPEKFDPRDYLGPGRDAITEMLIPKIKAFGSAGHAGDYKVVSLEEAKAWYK

| SMILES | Potency | activity, negative = inhibition |
| --- | --- | --- |
| Cc1ccc(NC(=O)CSC(C)c2nc3ccccc3c(=O)[nH]2)cc1 (stereo not drawn) | inconclusive: 25.1 µM [inhibitor, partial curve] | – |
| CCN(CC)S(=O)(=O)c1cccc(-c2n[nH]c(=S)n2/N=C/c2ccc(C(=O)OC)cc2)c1 | inconclusive: 17.7 µM [activator, single point] | – |
| COC(=O)CCC(=O)OC1(C)C(=O)C2=CN(CCCOC(C)C)C(c3ccc(OC)cc3)=CC2=C(Br)C1=O (stereo not drawn) | inconclusive: 1.77 µM [inhibitor, full curve] | – |
| CC(=O)c1ccc(NC(=O)c2cnn3ccccc23)cc1 | – | inactive: -10.7% |
| O=C(NC(=S)Nc1cccc2c(O)cccc12)c1cccc(Br)c1 | inconclusive: 17.7 µM [inhibitor, partial curve] | – |
| CN(C)CCN(C(=O)c1ccco1)c1nc2cc3c(cc2s1)OCCO3 | inconclusive: 31.6 µM [inhibitor, partial curve] | – |
| CC(C)=NNC1=NC(C)(C)Cc2ccccc21 | inconclusive: 15.8 µM [inhibitor, single point] | – |
| Cc1cccc2cc(C(c3nnnn3Cc3ccc4c(c3)OCO4)N3CCCC3)c(=O)[nH]c12 (stereo not drawn) | inconclusive: 20 µM [inhibitor, partial curve] | – |
| O=C(N/N=C/c1ccc(-c2ccccc2[N+](=O)[O-])o1)c1cncc(Br)c1 | inconclusive: 2.81 µM [inhibitor, full curve] | – |
| C[n+]1c(/C=C/c2ccc(O)cc2)ccc2ccccc21 | – | inactive: -2.37% |
| CN(C)c1ccc(CC2C(=O)Nc3ccccc32)cc1 (stereo not drawn) | inconclusive: 5.61 µM [inhibitor, partial curve] | – |
| Clc1ccc2nc(SCc3nnc(-c4ccccc4)o3)[nH]c2c1 | inconclusive: 17.7 µM [inhibitor, single point] | – |
| COC(=O)C1=C(C)N(Cc2ccco2)C(=O)/C1=C\c1ccc([N+](=O)[O-])cc1 | inconclusive: 19.9 µM [inhibitor, single point] | – |
| CCn1c(O)c(/C=N/NC(=O)c2ccncc2)c(=O)n(CC)c1=S | – | inactive: 23% |
| COc1c(O)c(O)cc2c1oc1c3ccccc3oc(=O)c21 | inconclusive: 17.7 µM [inhibitor, single point] | – |
| O=C(CCNC(=O)c1ccccc1Cl)NCCc1ccc(Cl)cc1 | – | inactive: 13.4% |
| CC(C)(C)c1nc(SCC(=O)NNC(=O)c2ccccc2)c2ccccc2n1 | – | inactive: 2.06% |
| COc1ccc(-n2c(=S)[nH]c3cc(C(=O)NCCCN4CCCC4=O)ccc3c2=O)cc1OC | inconclusive: 15.8 µM [inhibitor, single point] | – |
| CCn1c(SCC(=O)Nc2sc3c(c2C(N)=O)CCC(C)C3)nnc1-c1ccco1 (stereo not drawn) | inconclusive: 14.1 µM [inhibitor, partial curve] | – |
| Cc1ccc(-n2[nH]c(C)c(/C=N/NC(=O)c3cccc([N+](=O)[O-])c3)c2=O)cc1C | inconclusive: 44.6 µM [activator, single point] | – |
| Cc1ccc(NC(=S)Nn2cnnc2)cc1 | active: 15.8 µM | – |
| CC(=O)c1ccc(OCC(O)CN2CCN(S(=O)(=O)c3c(C)cc(C)cc3C)CC2)cc1 (stereo not drawn) | inconclusive: 15.8 µM [inhibitor, partial curve] | – |
| CN(C)CCCN1C(=O)c2cccc3c(Br)ccc(c23)C1=O | – | inactive: 0.115% |

| SMILES | Potency | activity, negative = inhibition |
| --- | --- | --- |
| O=C(NNC(=O)c1ccccc1[N+](=O)[O-])c1cnccn1 | active: 19.9 µM | – |
| COCCNc1ccnc(-c2ccccc2CN(C)C)n1 | – | inactive: -1.67% |
| O=C(COc1ccc(Br)cc1)OCCN1CCCCC1 | inconclusive: 35.5 µM [inhibitor, single point] | – |
| COC(=O)CCCC1=CC2=CC(=O)C(C)(OC(=O)c3cccs3)C(=O)C2=CN1Cc1ccc2c(c1)OCO2 (stereo not drawn) | inconclusive: 792 nM [inhibitor, full curve] and inconclusive: 1.41 µM [inhibitor, single point] | – |
| C=CC1=C(C(=O)O)N2C(=O)C(NC(=O)Cc3ccccc3)C2SC1 (stereo not drawn) | active: 15.8 µM | – |
| Cc1cc(C)c(C(=O)CSc2nc(C)cc(=O)[nH]2)c(C)c1 | inconclusive: 22.4 µM [inhibitor, single point] | – |
| Nc1[nH]n(-c2ccccc2)c(=O)c1N=Nc1ccc2c(c1)OCO2 | – | inactive: -12.5% |
| CC1CN(CCOCCOc2ccccc2-c2ccccc2)CC(C)O1 (stereo not drawn) | active: 11.2 µM | – |
| CC(C)(CO)NC(=S)NCc1ccco1 | inconclusive: 17.7 µM [inhibitor, partial curve] | – |
| O=C(NC1CCCCC1)C(=S)NCCc1ccccc1 | inconclusive: 19.9 µM [inhibitor, single point] | – |
| O=C1Nc2ccccc2C1Cc1ccccc1 (stereo not drawn) | inconclusive: 15.8 µM [inhibitor, single point] | – |
| CCCCOc1ccc(NC(=O)CN2CCN(CC)CC2)cc1 | inconclusive: 8.91 µM [inhibitor, partial curve] | – |
| CN(C)c1nc(=NCc2ccco2)ss1 | inconclusive: 3.97 µM [inhibitor, full curve] | – |
| Cc1onc(-c2ccccc2Cl)c1C(=O)NC(=S)Nc1ccccc1C(N)=O | inconclusive: 15.8 µM [inhibitor, single point] | – |
| C=CCSc1nnc(NC(=O)c2cccc(S(=O)(=O)N3CCOCC3)c2)s1 | inconclusive: 15.8 µM [inhibitor, partial curve] | – |
| NC(=O)C1(N2CCCCC2)CCN(C(=S)Nc2ccc(S(N)(=O)=O)cc2)CC1 | active: 7.92 µM | – |
| CCOC(=O)N1CCN(CC(c2ccccc2)c2ccccc2)CC1 | inconclusive: 28.2 µM [inhibitor, partial curve] | – |
| Cc1cccc(CNc2nc(-c3cccnc3)nc3ccccc23)c1 | – | inactive: -10.2% |
| O=C(O)[C@H](Cc1ccccc1)N1C(=O)c2c(Cl)c(Cl)c(Cl)c(Cl)c2C1=O | inconclusive: 28.2 µM [activator, partial curve] | – |
| Cc1nnc(Sc2cc(NCCCO)c([N+](=O)[O-])c3nonc23)s1 | inconclusive: 1.41 µM [inhibitor, full curve] | – |
| O=C(c1ccccc1)N1CCN(CC2CC=CCC2)CC1 (stereo not drawn) | inconclusive: 19.9 µM [inhibitor, partial curve] | – |
| CCCCOC(=O)c1ccc(NC(=O)c2cc(Cl)ccc2OC)cc1 | – | inactive: -1.7% |
| CCN1CCN(CC(=O)N2c3ccccc3CC2C)CC1 (stereo not drawn) | inconclusive: 14.1 µM [inhibitor, partial curve] | – |

| SMILES | Potency | activity, negative = inhibition |
| --- | --- | --- |
| COc1cc(OC)c(OC)cc1CN1CCCC(C(=O)N2CCCC2)C1 (stereo not drawn) | active: 28.2 µM | – |
| CCN(c1ccccc1)S(=O)(=O)c1cc([N+](=O)[O-])ccc1N | – | inactive: 5.1% |
| C[C@H](NC(=O)c1[nH]cnc1C(=O)Nc1ccc(Cl)cc1)C(=O)OC(C)(C)C | inconclusive: 50 µM [inhibitor, partial curve, poor fit] | – |
| CCOc1ccc(NS(=O)(=O)c2cc(OCC(N)=O)c(C)cc2Cl)cc1 | – | inactive: -6.18% |
| O=C(NC(=S)Nc1ccc2[nH]c(=O)[nH]c2c1)c1cccc(F)c1 | inconclusive: 11.2 µM [inhibitor, partial curve] | – |
| CCc1c(C(C)S(=O)(=O)c2ccccc2)[nH]c(=O)n1CC (stereo not drawn) | – | inactive: -5.61% |
| Cc1cc(C)cc(NC(=O)c2cc(C)n(Cc3cccs3)c2C)c1 | – | inactive: 0.313% |
| Cc1cc(OCC(=O)NC(Cc2c[nH]c3ccc(O)cc23)C(=O)O)c2c(C)c(C)c(=O)oc2c1 (stereo not drawn) | inconclusive: 39.8 µM [inhibitor, partial curve, poor fit] | – |
| CCCOc1ccc(CN(CCC#N)C(=S)NC(=O)c2ccccc2)cc1 | inconclusive: 15.8 µM [activator, single point] | – |
| CCCCNC(=O)c1nc2ncc(Br)cn2n1 | – | inactive: -0.618% |
| Cc1ccc(CNC(=O)[C@H](Cc2ccccc2)NC(=O)C2CCNCC2)cc1 | inconclusive: 11.2 µM [inhibitor, partial curve] | – |
| Cc1cc(Cl)ccc1NNC(N)=S | inconclusive: 15.8 µM [inhibitor, partial curve] | – |
| COc1ccccc1CNCC(=O)Nc1cc(S(=O)(=O)N2CCCCCC2)ccc1Cl | inconclusive: 11.2 µM [inhibitor, partial curve] | – |
| CCCC(=O)NC(c1ccc(Cl)cc1)c1ccc2cccnc2c1O (stereo not drawn) | inconclusive: 39.8 µM [activator, single point] | – |
| COc1ccc(C2=C(O)C(C)N(c3ccccc3)C2=N)cc1OC (stereo not drawn) | inconclusive: 17.7 µM [inhibitor, single point] | – |
| O=C(N/N=C/c1ccc(O)c(O)c1)C1c2ccccc2Oc2ccccc21 | inconclusive: 7.06 µM [inhibitor, partial curve] | – |
| COc1ccc(C(=O)Nc2ccc(NC(=O)c3cccc(F)c3)cn2)cc1 | inconclusive: 22.4 µM [inhibitor, partial curve, poor fit] | – |
| O=C1Nc2ccc([N+](=O)[O-])cc2C1=Nc1cccc(CO)c1 | inconclusive: 2.51 µM [inhibitor, full curve] | – |
| COc1ccc(CCNS(=O)(=O)c2c(C)[nH]c(C)c2C(=O)N2CCCCC2)cc1OC | – | inactive: -15.2% |
| CCOC(=O)c1c(C)[nH]c(-c2csc(N)n2)c1C | inconclusive: 35.4 µM [inhibitor, single point] | – |
| CCCCC1=CC2=CC(=O)C(C)(OC(=O)CC)C(=O)C2=CN1C1CCCCC1 (stereo not drawn) | inconclusive: 706 nM [inhibitor, full curve] and inconclusive: 1.26 µM [inhibitor, single point] | – |
| COC(=O)CCC(=O)OC1(C)C(=O)C=C2C=C(C3CC3)N(CCN3CCOCC3)C=C2C1=O (stereo not drawn) | inconclusive: 0.354 µM [inhibitor, full curve] | – |
